# Measurements as given in PubChem BioAssay AID485313 (National Center for Advancing Translational Sciences (NCATS), 2010).
# In all, about 320,000 compounds went through this assay and about 7,600 (2.4%) were called active. Inconclusive means that the source gave no clear call. Such entries were picked first, then a sample of the others. The call rests on the fitted dose curve; in most records, active means well fitted activation curve with a large enough effect; inconclusive means small, poorly fitted or top-dose-only effect; inactive means no such curve, though single readings can be large or run the other way. No potency is given beside an inconclusive call; the fits are too rough.
# Test: qHTS Assay for NPC1 Promoter Activators; further: nearly all actives have a fitted effect of over 60% in size;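 on activation: reporter is driven by a mutant NPC1 promoter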
# Settings: Huh7 NPC1 promoter luciferase reporter, 24 h; series mostly up to 9.22 µM
# Outline: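 Cells: Huh7 expressing luciferase under the NPC1 promoter, 1500/well. Seeded 2 h, compound added, incubated 24 h at 37 °C. Luciferase reagent, 10 min ambient, then luminescence.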
# Potency means the concentration at half of the fitted maximal effect; tags describe the fitted curve by direction and shape.
row,Compound,Potency
1,Cc1ccc(NC(=O)CCNC(=O)c2ccccc2Cl)cc1S(=O)(=O)N1CCOCC1,inactive
2,CCN(CC)c1ccc(/C=N/n2c(C)nc3ccccc3c2=O)cc1,inactive
3,CC(=O)Nc1cccc(-c2nc3ccccc3s2)c1,"inconclusive [activator, single point]"
4,COc1ccccc1/C=C/C=NC1C(=O)N(c2ccccc2)[N+](C)=C1C (stereo unspecified),inactive
5,COc1ccc(-c2cc(C(=O)O)c(C)o2)cc1OC,"inconclusive [activator, full curve]"
6,COc1ccccc1-c1cc(-c2ccccc2)nc(=O)[nH]1,inactive
7,CC(/C=N\NC(=O)c1cc(C)oc1C)=C\c1ccccc1,"inconclusive [activator, partial curve]"
8,CCc1ccc(C(=O)Nc2nnn(CC)n2)cc1,active: 2 µM
9,Cc1cc(/C=C(/C#N)c2cccc(F)c2)c(C)n1-c1cccnc1,"inconclusive [activator, single point]"
10,O=C(Nc1ccccn1)Nc1ccccc1Cl,"inconclusive [activator, single point]"
11,O=C(Cc1ccc(Br)cc1)c1ccc(O)cc1O,active: 3.16 µM
12,CN(C)/C=C/C(=O)c1cnc(-c2ccccc2Cl)s1,active: 2 µM
13,C=CCOc1ccc(C(=O)Nc2ccc(OCC)cc2)cc1,"inconclusive [activator, partial curve]"
14,COc1ccc(NC(=O)c2ccc3nc[nH]c3c2)cc1,"inconclusive [activator, single point]"
15,CSc1nc(N)n2nc(-c3ccccc3)cc2n1,active: 2 µM
16,COc1ccc(-n2nc(C(=O)NCC(=O)N3CCN(c4ccccc4)CC3)c3ccccc3c2=O)cc1OC,"inconclusive [activator, single point]"
17,O=C(Cn1ccsc1=NC(=O)C(F)(F)F)c1ccccc1,"inconclusive [activator, single point]"
18,Cc1nn(-c2ccccc2)c(C)c1CCC(=O)O,"inconclusive [activator, partial curve]"
19,COC(=O)c1ccc(N/C=C\C(=O)c2ccc3c(c2)OCO3)cc1,"inconclusive [activator, partial curve]"
20,N#CCCn1cc(C(=O)Nc2ccc(C(=O)O)cc2)c(-c2cccc(Br)c2)n1,inactive
21,Nc1ccc(/C=C/c2ccc3ncccc3c2)cc1,active: 0.447 µM

row,Compound,Potency
1,O=C(Nc1ccc(SC(F)F)cc1)C1=COCCO1,active: 1.26 µM
2,CCOc1ccc(NC(=O)CCC(=O)NNC(=O)COc2ccc(C)cc2Br)cc1,"inconclusive [activator, partial curve]"
3,CCCCCC(=O)Nc1ccc(N2CCN(CC)CC2)c(Cl)c1,"inconclusive [activator, partial curve]"
4,O=C(O)CCSc1nnc(COc2ccc(Cl)cc2)n1-c1ccccc1,"inconclusive [activator, single point]"
5,CCCC(C(=O)NC1CCCC1)N(CCN(CC)CC)C(=O)c1snc(C(N)=O)c1N (stereo unspecified),"inconclusive [activator, single point]"
6,Cc1ccc(NC(=O)COc2ccc3c(c2)CCC3)nc1,"inconclusive [activator, partial curve]"
7,Cc1ccc2c(Cl)c(C(=O)Nc3cc(C)on3)sc2c1,active: 2.82 µM
8,COc1ccc(C(=O)O)cc1S(=O)(=O)Nc1cccc(C(F)(F)F)c1,inactive
9,Cn1cccc1/C=C1\CCC/C(=C\c2cccn2C)C1=O,active: 1.26 µM
10,CCOc1ccc2nc(SCC)[nH]c2c1,"inconclusive [activator, single point]"
11,Cc1ccc(SC[C@H](CC(C)C)N2CCN(C)CCC2=O)cc1,"inconclusive [activator, partial curve]"
12,CN(C)/C=C/C(=O)c1cnc(-c2ccc(Cl)cc2)s1,active: 1 µM
13,Cc1n[nH]c(=O)c2c(NC(=O)CSc3nc4ccccc4c(=O)n3CCCO)oc(C)c12,inactive
14,CN(C)S(=O)(=O)c1cccc2c1C(=O)c1ccccc1C2=O,inactive
15,COCCNC(=O)c1cc2c(s1)-c1ccc(Cl)cc1SC2,active: 2.51 µM
16,c1ccc(-c2nc3ccccc3[nH]2)cc1,active: 3.55 µM
17,CN1CCN(S(=O)(=O)c2cccc(C(=O)NCCOc3ccccc3F)c2)CC1,inactive
18,Cc1ccc(-c2nnc(-c3ccc4c(c3)OCO4)o2)cc1,active: 1 µM
19,COc1cccc(C(=O)/C=C/c2ccc(OCC#N)c(OC)c2)c1,inactive
20,Cc1cc(C)c2c(N)c(C(=O)NN3CC(=O)N(c4ccccc4F)CC3=O)sc2n1,"inconclusive [activator, single point]"
21,Cn1nc(C(F)(F)F)c(-c2cccc(C(F)(F)F)c2)c1NC(=O)c1nccnc1C(=O)O,"inconclusive [activator, partial curve]"

row,Compound,Potency
1,O=C(NCCc1ccccc1)C(=O)Nc1ccc2c(c1)OCCO2,inactive
2,CC(=O)c1ccc(NC(=S)NCCc2cccc(Cl)c2)cc1,"inconclusive [activator, partial curve]"
3,CCSc1nnc(NC(=O)C2CCCCC2)s1,"inconclusive [activator, single point]"
4,COc1ccc(C(=O)C(OC(=O)c2ccccc2Cl)c2ccccc2)cc1 (stereo unspecified),"inconclusive [activator, partial curve]"
5,COc1ccc(C(=O)Nc2cc(C)on2)c(OC)c1,active: 3.16 µM
6,CCn1c(Cc2ccccc2)nnc1SCC(=O)N1CCCCC1,inactive
7,O=C(O)c1cc(/C=C/c2ccc(N3CCOCC3)cc2)nc2ccccc12,"inconclusive [activator, full curve]"
8,COc1cccc(/C=C2\C=C(c3ccc(C)cc3)OC2=O)c1OC(C)=O,inactive
9,O=c1cc(-c2ccc(O)cc2)oc2ccccc12,"inconclusive [activator, single point]"
10,Cc1ccc(Cn2nnc3c(=O)[nH]c(C4CCCN(S(=O)(=O)c5ccccc5)C4)nc32)cc1 (stereo unspecified),inactive
11,CCOc1ccc2nc(NC(=O)Nc3cccs3)sc2c1,"inconclusive [activator, single point]"
12,COc1ccc(C(=O)O/N=C(\N)c2ccccc2)c(OC)c1,active: 3.16 µM
13,O=C(Cc1cccs1)Nc1ccc(N2CCOCC2)cc1,"inconclusive [activator, partial curve]"
14,O=C(COc1ccc(Cl)cc1Cl)NC(=O)NC1CCCC1,"inconclusive [activator, partial curve]"
15,COC(=O)c1sc(NC(=O)c2csc3c2CCCC3)nc1C,"inconclusive [activator, partial curve]"
16,O=C(NCc1ccco1)c1cc(-c2ccccc2)on1,"inconclusive [activator, partial curve]"
17,O=C(COc1ccccc1F)Nc1ccc2c(c1)OCCO2,active: 1.78 µM
18,CN(C)c1ccc(C(=O)Nc2nc3c(s2)CCCC3)cc1,active: 0.447 µM
19,Nc1[nH]c(N=NC(=O)c2ccccc2O)c2ccccc12,active: 2.82 µM
20,N/C(=N\N=C\c1ccc(O)c(O)c1)c1nonc1N,"inconclusive [activator, partial curve]"
21,Cc1ccc(C(=O)N/C(=C\c2ccc(F)cc2)C(=O)NCCCn2ccnc2)cc1,inactive

row,Compound,Potency
1,Cc1ccc2nc(/C(C#N)=C\c3cc(O)ccc3[N+](=O)[O-])[nH]c2c1,inactive
2,Cc1csc(NC(=O)Nc2cccc(Cl)c2)n1,"inconclusive [activator, single point]"
3,O=C(NCc1ccccc1)c1cc(-c2ccco2)on1,"inconclusive [activator, partial curve]"
4,Oc1[nH]c2ccccc2c1C=Nc1ccccc1,"inconclusive [activator, single point]"
5,C/C(=N\N1C(=O)c2ccccc2NC1c1ccco1)c1ccccc1O (stereo unspecified),"inconclusive [activator, partial curve]"
6,CC(C(=O)Nc1ccc(F)c(F)c1F)N1CCCCCC1 (stereo unspecified),"inconclusive [activator, single point]"
7,COC(=O)C1(NC(=O)NC2CCCCC2)CCCCC1,inactive
8,O=C(CSc1nnc(NC(=O)c2ccccc2)s1)NCC1CCCO1 (stereo unspecified),active: 3.55 µM
9,Cc1ccc(-n2nc3ccc(NC(=O)/C=C/c4ccco4)cc3n2)cc1,"inconclusive [activator, single point]"
10,Cc1ccc(-c2nc3ccccc3[nH]2)cc1N,active: 1.58 µM
11,COc1ccc(-c2noc(-c3ccccc3F)n2)cc1,"inconclusive [activator, single point]"
12,N#C/C(=C\c1cc(Br)ccc1F)C(=O)NC1CC1,inactive
13,Oc1ccccc1-c1cc(-c2ccc(Cl)cc2)n[nH]1,"inconclusive [activator, single point]"
14,CCCOc1ccccc1/C=C1\SC(N2CCCCC2)=NC1=O,"inconclusive [activator, partial curve]"
15,CC(O)CNc1ncnc2cc(-c3ccc(F)cc3)sc12 (stereo unspecified),"inconclusive [activator, partial curve]"
16,Cc1ccc2[nH]c(=O)c(CN(C(=O)c3cccc([N+](=O)[O-])c3)C(C)C)cc2c1,inactive
17,CCCCC(CC)CNC(=O)C(=O)c1ccccc1NC(C)=O (stereo unspecified),inactive
18,COc1cccc(NC(=O)/C=C/c2ccccc2[N+](=O)[O-])c1,"inconclusive [activator, single point]"
